Laboratory results published in PubChem BioAssay (Tox21).
Values joined by “and” are separate entries in the source; they are usually repeats but may differ in a detail not shown here. Equal entries are not always repeated. Inconclusive means that the source gave no clear call. Such entries were picked first, then a sample of the others. Where the call is inconclusive, the potency comes from a doubtful curve fit. Some compounds were tested as several samples or in several runs, with calls that do not always agree. Active and inactive are the calls of the source. Calls come from the whole dose curve; as a rule, active = well fitted curve in the direction sought with a large enough effect in the repeat runs; inconclusive = weak or mixed curves; inactive = no such curve, though single readings can be large; an effect the other way counts as inactive or inconclusive.
% is set by controls: 0 for no effect and ±100 for the full control effect; potency is the fitted concentration of half-maximal effect; tags give direction and shape of the fitted curve.

System: not listed separately
Test: qHTS assay to identify small molecule antagonists of the estrogen receptor alpha (ER-alpha) signaling pathway using the BG1 cell line - cell viability counter screen (AID 743081);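 note: compound given together with 17beta-estradiol as the ER stimulus; nearly all actives have a fitted effect of over 45% in size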
Settings: BG1Luc4E2 viability, CellTiter-Fluor, 22 h; activity change, negative = cytotoxicity: at 70.3 µM (top of the series)
For `CCOC(=O)C1(c2ccccc2)CCN(CCC(C#N)(c2ccccc2)c2ccccc2)CC1`, the Potency was inconclusive: 29.9 µM [cytotoxic, single point]. For `CCCCCCCCn1cc[n+](C)c1`, the Potency was “inactive and inconclusive: 13.8 µM [cytotoxic, partial curve, poor fit]”. In the case of `c1cc2ccc3cccc4ccc(c1)c2c34`, the Potency is reported as inconclusive: 40.4 µM [rising, partial curve, poor fit]. In the case of `CO/C=C(/C(=O)OC)c1ccccc1Oc1cc(Oc2ccccc2C#N)ncn1`, the Potency is reported as inconclusive: 27.3 µM [cytotoxic, full curve]. For `CCCC[n+]1ccc(C)cc1`, the Potency was inconclusive: 9.7 µM [cytotoxic, full curve]. In the case of `CC(C)N(C(=O)CCl)c1ccccc1`, the Potency is reported as inconclusive: 68.6 µM [cytotoxic, single point]. For `CC1(c2ccc(Oc3ccccc3)cc2)OC(=O)N(Nc2ccccc2)C1=O` (configuration not stated), the Potency was inconclusive: 54.8 µM [cytotoxic, partial curve]. In the case of `O=C(CCl)Nc1ccccc1`, the Potency is reported as inconclusive: 68.6 µM [cytotoxic, single point]. With `C/C(=C\c1ccccc1)[N+](=O)[O-]` the Potency was inconclusive: 68.6 µM [cytotoxic, single point]. With `C=CC(=O)NCNC(=O)C=C` the Potency was inconclusive: 27.3 µM [cytotoxic, single point]. In the case of `O=[N+]([O-])c1ccc2ccc3cccc4ccc1c2c34`, the Potency is reported as inconclusive: 61.1 µM [cytotoxic, partial curve, poor fit]. In the case of `Cc1cc(C2CC2)nc(Nc2ccccc2)n1`, the Potency is reported as inconclusive: 7.7 µM [rising, partial curve]. With `CCNc1nc(NC(C)C)nc(SC)n1` the Potency was inconclusive: 48.6 µM [rising, partial curve, poor fit]. With `CC(C)(O)C(=O)Nc1ccc([N+](=O)[O-])c(C(F)(F)F)c1` the Potency was inconclusive: 55.6 µM [cytotoxic, partial curve, poor fit] and inconclusive: 39.8 µM [cytotoxic, partial curve, poor fit]. With `COP(=S)(OC)SCn1nnc2ccccc2c1=O` the Potency was “inactive”.

Biological target: Aromatase (Homo sapiens) (UniProt P11511)
Sequence of UniProt P11511 (P11511 whole entry, looked up): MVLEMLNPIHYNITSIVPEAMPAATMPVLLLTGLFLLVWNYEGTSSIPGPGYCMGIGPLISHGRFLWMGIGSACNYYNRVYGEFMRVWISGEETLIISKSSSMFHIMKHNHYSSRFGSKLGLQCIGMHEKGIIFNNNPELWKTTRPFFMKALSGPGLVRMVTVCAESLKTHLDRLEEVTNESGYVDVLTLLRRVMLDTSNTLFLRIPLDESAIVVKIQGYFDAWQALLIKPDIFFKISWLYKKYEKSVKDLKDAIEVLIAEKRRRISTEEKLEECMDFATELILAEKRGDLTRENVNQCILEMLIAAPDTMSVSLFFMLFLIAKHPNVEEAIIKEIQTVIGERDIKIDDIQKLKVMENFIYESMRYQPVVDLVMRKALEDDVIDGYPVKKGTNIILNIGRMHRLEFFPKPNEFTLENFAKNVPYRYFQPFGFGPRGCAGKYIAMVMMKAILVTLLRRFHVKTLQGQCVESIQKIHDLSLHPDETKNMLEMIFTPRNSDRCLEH
Test: qHTS assay to identify aromatase inhibitors (AID 743083); note: nearly all actives have a fitted effect of over 55% in size
Settings: MCF-7 aro ERE, testosterone-driven ERE luciferase, 24 h; activity, negative = inhibition: at 70.3 µM (top of the series)
For `CCCCCCCCn1cc[n+](C)c1`, the Potency was active: 34.3 µM and active: 27.5 µM and active: 55 µM. With `CCCC[n+]1ccc(C)cc1` the Potency was active: 19.4 µM. With `Oc1c(Br)c(Br)c(Br)c(Br)c1Br` the Potency was inconclusive: 77.4 µM [inhibitor, single point]. For `CCN(CC)c1c([N+](=O)[O-])cc(C(F)(F)F)c(N)c1[N+](=O)[O-]`, the Potency was active: 34.4 µM. In the case of `CCOP(=S)(OCC)Oc1cc(C)nc(N(CC)CC)n1`, the Potency is reported as inconclusive: 61.1 µM [inhibitor, partial curve, poor fit]. In the case of `CO/N=C(/C(=O)OC)c1ccccc1COc1ccccc1C`, the Potency is reported as inconclusive: 34.4 µM [inhibitor, partial curve]. With `Oc1cc(Cl)c(Cl)c(Cl)c1Cl` the Potency was inconclusive: 67 µM [inhibitor]. For `CC(Oc1ccc(Oc2ncc(C(F)(F)F)cc2Cl)cc1)C(=O)O` (configuration not stated), the Potency was inconclusive: 24.3 µM [inhibitor, partial curve]. With `C=CC(=O)NCNC(=O)C=C` the “activity, negative = inhibition” value was inactive: 83.3%. In the case of `CCCC1COC(Cn2cncn2)(c2ccc(Cl)cc2Cl)O1` (configuration not stated), the Potency is reported as active: 31.2 µM and active: 24.3 µM. With `O=C(NC(=O)c1c(F)cccc1F)Nc1cc(Cl)c(Oc2ncc(C(F)(F)F)cc2Cl)c(Cl)c1` the Potency was inconclusive: 16.5 µM [inhibitor, partial curve].

System: not listed separately
Test: qHTS assay to identify aromatase inhibitors - cell viability counter screen (AID 743084);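 note: cells stimulated with testosterone during compound exposure; nearly all actives have a fitted effect of over 55% in size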
Settings: MCF-7 aro ERE viability, CellTiter-Fluor, 24 h; activity change, negative = cytotoxicity: at 70.3 µM (top of the series) unless noted
With `c1cc2ccc3cccc4ccc(c1)c2c34` the “activity change, negative = cytotoxicity” value was inactive: 17.8% [at 95 µM]. In the case of `CO/C=C(/C(=O)OC)c1ccccc1Oc1cc(Oc2ccccc2C#N)ncn1`, the Potency is reported as active: 58.1 µM. With `CCCC[n+]1ccc(C)cc1` the Potency was inconclusive: 48.3 µM [cytotoxic, partial curve] and inconclusive: 15.4 µM [cytotoxic, full curve]. With `CC(C)N(C(=O)CCl)c1ccccc1` the Potency was active: 24.3 µM. In the case of `Oc1c(Br)c(Br)c(Br)c(Br)c1Br`, the Potency is reported as inconclusive: 77.4 µM [cytotoxic, single point]. For `CC1(c2ccc(Oc3ccccc3)cc2)OC(=O)N(Nc2ccccc2)C1=O` (configuration not stated), the Potency was inconclusive: 69 µM [cytotoxic]. With `CCN(CC)c1c([N+](=O)[O-])cc(C(F)(F)F)c(N)c1[N+](=O)[O-]` the Potency was inconclusive: 68.6 µM [cytotoxic, single point]. With `Cc1cc(C(C)(C)c2ccc(O)c(C)c2)ccc1O` the Potency was inconclusive: 46.2 µM [cytotoxic, partial curve]. For `O=C(CCl)Nc1ccccc1`, the Potency was active: 27.3 µM. In the case of `CO/N=C(/C(=O)OC)c1ccccc1COc1ccccc1C`, the Potency is reported as inconclusive: 54.5 µM [cytotoxic, partial curve]. For `Oc1cc(Cl)c(Cl)c(Cl)c1Cl`, the Potency was inconclusive: 75.2 µM [cytotoxic, single point]. With `C=CC(=O)NCNC(=O)C=C` the Potency was inconclusive: 77 µM [cytotoxic]. With `COP(=S)(OC)Oc1cc(Cl)c(Br)cc1Cl` the “activity change, negative = cytotoxicity” value was inactive: 7.12%. In the case of `Cc1cc(C2CC2)nc(Nc2ccccc2)n1`, the Potency is reported as inconclusive: 43.3 µM [cytotoxic, partial curve, poor fit]. For `IC(I)=C(I)I`, the Potency was active: 15.4 µM. For `COP(=S)(OC)SCn1nnc2ccccc2c1=O`, the Potency was inconclusive: 68.6 µM [cytotoxic, single point].
